Results taken from paper PMC12136788.
Some of the results follow.

T1: UNK ZnF1-3 (human, UniProt Q9C0B0 31-174)
T1 sequence: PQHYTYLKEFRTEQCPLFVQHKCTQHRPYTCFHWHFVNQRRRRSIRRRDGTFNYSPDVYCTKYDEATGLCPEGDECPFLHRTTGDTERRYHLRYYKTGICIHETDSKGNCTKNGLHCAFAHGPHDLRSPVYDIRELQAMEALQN

B1: chr11:10818680:10818681:-_ENSG00000110321_ENST00000525681|hu_mus|FALSE|FALSE (ssRNA)
RNA: GGGAGUUCUACAGUCCGACGAUCUAUAUAAAAUCAGGGCAUGAACAUGACUUGAUAAAUUAAGUAGACUUAAUUUCAAUACUAUAAUAAGAGGGACCAAUUCAAAUUCUCACCAUUUGUUUCACACCCACAAAAACCACUUCACAACAGAGGAUUGAGCAUCA
B2: chr8:74858975:74858976:-_ENSG00000154582_ENST00000284811|hu_mus|hu_hu_hu_mus_True|68_88 (ssRNA)
RNA: GGGAGUUCUACAGUCCGACGAUCGACCUUGUAGGUAAAAUACAUGCAUACUUUCGAUAGCACAUGUGAAGGUAUCUCUCUAAAAUUGACCUCGUUGGUUUCAUUCUCAGCAAACUGACCUGGACCACUCAACAUAGCCUUUAUCAACAGAGGAUUGAGCAUCA
B3: chr8:104447970:104447971:+_ENSG00000164934_ENST00000297579|hu_hu|hu_hu_hu_mus_False|8_48 (ssRNA)
RNA: GGGAGUUCUACAGUCCGACGAUCAUACACUUCCCUGCUUCGGCUCUUGUCCACAGGAAAGAUUCUAAUAGACUUAUCAAAGCUGGCAGACACAAACUCCUUCCCAGUGGGAGAGUAGUCCACAUCAAGCACUGCAGACACGUGCAACAGAGGAUUGAGCAUCA
B4: chr8:77776764:77776765:+_ENSG00000091656_ENST00000521891|hu_hu|motif|central (ssRNA)
RNA: GGGAGUUCUACAGUCCGACGAUCUUUAAGCACGGGAUCCUGUCUUCACUCCUACACACUGAACAUAUCCAUUCGGAUGCGGUUGAAAUUACCAUCUAGGCCAGAAGCAGGCUUAGCCUUCACUUCCAAAGAAUUAUCUAAGUCCAACAGAGGAUUGAGCAUCA
B5: 46808375_46808495_1150_3pUTR_ENSG00000119729_ENST00000238738|human|control|control (ssRNA)
RNA: GGGAGUUCUACAGUCCGACGAUCAUUGUAGCUUUUUAAACUAUGAAACCCCUGAGAGAUUGUACCUUCUAGUUGAAAUAAAGUAUUUAUAAUAGAUUGUGGCUUCAGAUGCUGCUUACUGCUUCUUAAACCUUUAAGGAACAUCAACAGAGGAUUGAGCAUCA
B6: chr2:47388980:47388981:-_ENSG00000143933_ENST00000272298|hu_mus|hu_hu_hu_mus_True|68_68 (ssRNA)
RNA: GGGAGUUCUACAGUCCGACGAUCUUCAUCUGUUAACUUCUCGCCAAGGUUUGUCAUCACAUGGCGAAGUUCUGCAGCACUAAUAUAGCCAUUGCCAUCCUUAUCAAACACACGGAAUGCUUCUCUAAUCUCUUCUUCACUGUCCAACAGAGGAUUGAGCAUCA
B7: chr1:163112212:163112213:-_ENSG00000143248_ENST00000313961|hu_hu|hu_hu_hu_mus_False|1_28 (ssRNA)
RNA: GGGAGUUCUACAGUCCGACGAUCUUUUAUUAUCAGUAAGAGUGAGUUACAUACUAGGCAAAGUAUUGGAUACAAUAAUCAGGAAACAAACACUAUUGGUCCAGAAUUUAAAAUAUAAUGAGCGAAGUGCUGGCACAGGAUUUACAACAGAGGAUUGAGCAUCA
B8: 98547442_98547784_4317_CDS_ENSG00000196367_ENST00000456197|human|control|control (ssRNA)
RNA: GGGAGUUCUACAGUCCGACGAUCCCUCCAUAUACUCUUUUAAGAAUGUCAUGUUGCAGAGAAAACGACCAGUAAAGGCUCGGAGCAGCUGGAACAGCAAUUCUAUAUCUCCGUAAUUCCUUUUGCAGUAGUUCAGCAGGCAGUCAACAGAGGAUUGAGCAUCA
B9: chr4:17845017:17845018:+_ENSG00000109805_ENST00000514176|hu_mus|hu_hu_hu_mus_False|38_68 (ssRNA)
RNA: GGGAGUUCUACAGUCCGACGAUCGCUCUCUUAACUUGUAUCUUCAUUAAGGAACUCUGCAAGGUUAGUUUACUUUUUCUGUAGCGCAGCUGUUUUGCUCGUCUUGGGUAAUCUCAUCUUCAUUUCUGAUGGUGGUUCAUGAUCCAACAGAGGAUUGAGCAUCA
B10: chr11:79222206:79222207:+_ENSMUSG00000020716_ENSMUST00000071325|mus_mus|motif|central (ssRNA)
RNA: GGGAGUUCUACAGUCCGACGAUCCUUUGUAAAUUCAUCCGGAUAAUUUUCUACCCAGUUCCAAAAAGCCUUUUCGGGGCGGUUUAUAACUGCCAACUGUGCAACCUUCUUCAGGGCUUUAAAUUUAAAUGCUGUUUCCUUCAGCAACAGAGGAUUGAGCAUCA
B11: chr15:31432613:31432614:-_ENSMUSG00000039100_ENSMUST00000090227|mus_mus|motif|central (ssRNA)
RNA: GGGAGUUCUACAGUCCGACGAUCAUAAAUUGGUGUGAAAGCAAAUCUGUGCUUGCAUAAUUCACAGUAUUCUUUCCGACGGUGUUUCAACCACUGAACUAAGCAUUCUUGAUGAAUAAAUUUAAUACUGCCAGUACAUACACACAACAGAGGAUUGAGCAUCA
B12: chr17:30678820:30678821:+_ENSG00000010244_ENST00000394673|hu_hu|motif|central (ssRNA)
RNA: GGGAGUUCUACAGUCCGACGAUCAUUUAAAAUGCUUUGCUUUUUGGUGCUGAAUAAGGAUCUUCUCAUCAUCAAAAUCUCGGUUACAAUACCAGCACCACGGCUUCAGCUGCUUCUUCUUCUUGCGACCCAUAACUGUGUUCUCAACAGAGGAUUGAGCAUCA
B13: chr4:25749455:25749456:-_ENSG00000091490_ENST00000264868|hu_hu|hu_hu_hu_mus_False|18_98 (ssRNA)
RNA: GGGAGUUCUACAGUCCGACGAUCGCACUAUGACCUCCCCUAGAAAACACAGGGGGAAAAAAUGUAAACCAAUGUACAAUGUUAUCGCCUUCCCUGUGUGUGGAGUGUUUGUCUCAAUAUUUCAAGGAGCUGCUGGAUUUGGGACAACAGAGGAUUGAGCAUCA
B14: chr2:47387770:47387771:-_ENSG00000143933_ENST00000272298|hu_mus|hu_hu_hu_mus_True|18_108 (ssRNA)
RNA: GGGAGUUCUACAGUCCGACGAUCAAGGUUUUAGGACAAUGACAGUAAGAUAAGGGAAGAAAACAUGGAGGAAUGAAGUCCUAAUUACUAUACAUGCAUAUUUUUUGACAGUAGGGGAGAAACCUUUUUUACAGAUAAGUUACACAACAGAGGAUUGAGCAUCA
B15: chr1:180971808:180971809:-_ENSG00000135823_ENST00000258301|hu_hu|motif|central (ssRNA)
RNA: GGGAGUUCUACAGUCCGACGAUCUUUUCUUAUACUCAAUUCAGUUGCAUCAAGGUUAAAUUUUCUAGGAUUUGCUUCAACGGUGCUGAUGGUUUCAUCAAGGUCCUCUAGAUCCCACUCUAUGCUCCGGAGGUUAUUUCUCAGCAACAGAGGAUUGAGCAUCA
B16: chr7:141438946:141438947:+_ENSG00000106028_ENST00000265304|hu_mus|hu_hu_hu_mus_True|38_88 (ssRNA)
RNA: GGGAGUUCUACAGUCCGACGAUCGACGAAAUACCUGUAACACAGGUGAAACAUGGCUGGCUUCUGUUUUUCUUACAACCUAAUCUUUAGGCUUUUCCUGACGAUCUGAAAGAAAAGAGAAAAAUGAUAAAUCAAGAAACUACACAACAGAGGAUUGAGCAUCA
B17: chr1:163112212:163112213:-_ENSG00000143248_ENST00000313961|hu_hu|hu_hu_hu_mus_False|38_58 (ssRNA)
RNA: GGGAGUUCUACAGUCCGACGAUCUUUUAUUAUCAGUAAGAGUGAGUUACAUACUAGGCAAAGUAUUGGAUACAAUAUUCUAAAGAUAAACACUAUUUUUCUUGAAUUUAAAACUUUAUGAGCGAAGUGCUGGCACAGGACUUACAACAGAGGAUUGAGCAUCA
B18: chr1:82727704:82727705:+_ENSMUSG00000026150_ENSMUST00000078332|mus_mus|FALSE|FALSE (ssRNA)
RNA: GGGAGUUCUACAGUCCGACGAUCCAGAGGUUUAAAGGGAGUGGACUGGAUAAGGUCAAGAUCUGCUGGUCUUGAAAAUGAAAUGUCUUCAUUAUUUCCUGUAACCACGAUCCUCUCUGGGACUUGCAUUAUCACACUGGCAUUCAACAGAGGAUUGAGCAUCA
B19: chr14:66974463:66974464:+_ENSMUSG00000022044_ENSMUST00000074523|mus_hu|mus_mus_mus_hu_False|78_88 (ssRNA)
RNA: GGGAGUUCUACAGUCCGACGAUCUUGUAGGACGACUUAUUCAGGGGAUCAGACAAGAAGCAAGAGCAGAACAAGGACACCAGCGGGAGCUCCUUCAUCUUCUCUUUGUAGGCAGCAAGGGUCAUGUUUCUGGGAUCUGGUGGCCAACAGAGGAUUGAGCAUCA
B20: 70346265_70346869_2708_CDS_ENSG00000184634_ENST00000374080|human|control|control (ssRNA)
RNA: GGGAGUUCUACAGUCCGACGAUCCGAGGAUUUGAGAAGCAGCUCAGCCUCAACUACACUCAGUUCAUUCAGCAGCUGAAUGGCAAAGUCGAUGAGGCCACUGAUGCUGAGUGAAUAUUCCAUGAGGUCGAAGAUGAACUGCACCAACAGAGGAUUGAGCAUCA
B21: chr19:53703180:53703181:+_ENSMUSG00000024974_ENSMUST00000025930|mus_mus|FALSE|FALSE (ssRNA)
RNA: GGGAGUUCUACAGUCCGACGAUCAUUUUGAACAUGCUGGUUUAUACCUUUUCGCCGAAAAUGUUCUAGCACUUUGUUAAUGCUAUCUAUUCCAUUUAAAAUGGCCUUUCCUGUUGCCGCUCUAAGAAGUUGCUGCUUCUUCUCCAACAGAGGAUUGAGCAUCA
B22: chr18:34476965:34476966:+_ENSMUSG00000005871_ENSMUST00000115781|mus_hu|motif|central (ssRNA)
RNA: GGGAGUUCUACAGUCCGACGAUCCAAUUUUCUUCUUAAGGUUGGGCUUGGAGCUUCUUUGAUGAAAGUUGACUGGCGUACGGAUACAGGUCUUUCUGAUCUAUCAGAUUCACUUCCACUUGAUUUAGUUGAAGACAUUCUAGACAACAGAGGAUUGAGCAUCA

target: T1, UNK ZnF1-3; assay: nsRBNS (natural sequence RNA bind-n-seq); RBNS binding buffer (assumed for nsRBNS): 25 mM Tris pH 7.5, 150 mM KCl, 3 mM MgCl2, 0.01% Triton X-100, 500 ug/ml BSA, 20 U/ml SUPERase-In, 4 C; UNK is unkempt and MSI1 is Musashi-1; names of the RNAs are library labels; protein concentration not given here; high values mean tight binding

Going from B1 to B2, the binding signal falls from 2.06 enrichment R to 0.85 enrichment R.

Compared with B3, B4 is lower in binding signal: 1.09 enrichment R for the first, 0.769 enrichment R for the second.

First: B5
Second: B6
The binding signal of the first is higher: 1.24 enrichment R for the first, 0.838 enrichment R for the second.

First: B7
Second: B8
The binding signal of the first is higher: 1.82 enrichment R for the first, 1.23 enrichment R for the second.

Compared with B9, B10 is higher in binding signal: 0.316 enrichment R for the first, 0.828 enrichment R for the second.

Going from B11 to B12, the binding signal falls from 1.25 enrichment R to 0.535 enrichment R.

First: B13
Second: B14
The binding signal of the first is lower: 1.43 enrichment R for the first, 1.67 enrichment R for the second.

First: B15
Second: B16
The binding signal of the first is lower: 0.542 enrichment R for the first, 0.983 enrichment R for the second.

Going from B17 to B18, the binding signal falls from 1.23 enrichment R to 0.941 enrichment R.

Compared with B19, B20 is lower in binding signal: 1.88 enrichment R for the first, 0.29 enrichment R for the second.

First: B21
Second: B22
The binding signal of the first is lower: 0.266 enrichment R for the first, 0.499 enrichment R for the second.
